Measurements published in US20250243260A1 (ALPINE IMMUNE SCIENCES, published 2025).

B1: CD80_208 variant CD80 IgV-Fc (V11Y, E35G, M42G, F59S) (Fc fusion)
chain: VIHVTKEVKEYATLSCGHNVSVEELAQTRIYWQKGKKMVLTGMSGDMNIWPEYKNRTISDITNNLSIVILALRPSDEGTYECVVLKYEKDAFKREHLAEVTLSVKADGSGGGGS[omitted - human IgG4 Fc with S228P (EU numbers)]
notes: also called CD80_208-Fc
B2: CD80_209 variant CD80 IgV-Fc (V11Y, T28R, E35G, M47L, F59S) (Fc fusion)
chain: VIHVTKEVKEYATLSCGHNVSVEELAQRRIYWQKGKKMVLTMMSGDLNIWPEYKNRTISDITNNLSIVILALRPSDEGTYECVVLKYEKDAFKREHLAEVTLSVKADGSGGGGS[omitted - human IgG4 Fc with S228P (EU numbers)]
notes: also called CD80_209-Fc; H5890
B3: CD80_210 variant CD80 IgV-Fc (E7N, E35D, F59S) (Fc fusion)
chain: VIHVTKNVKEVATLSCGHNVSVEELAQTRIYWQKDKKMVLTMMSGDMNIWPEYKNRTISDITNNLSIVILALRPSDEGTYECVVLKYEKDAFKREHLAEVTLSVKADGSGGGGS[omitted - human IgG4 Fc with S228P (EU numbers)]
notes: also called CD80_210-Fc
B4: CD80_211 variant CD80 IgV-Fc (V11Y, T28R, E35G, M47L, A71G) (Fc fusion)
chain: VIHVTKEVKEYATLSCGHNVSVEELAQRRIYWQKGKKMVLTMMSGDLNIWPEYKNRTIFDITNNLSIVILGLRPSDEGTYECVVLKYEKDAFKREHLAEVTLSVKADGSGGGGS[omitted - human IgG4 Fc with S228P (EU numbers)]
notes: also called CD80_211-Fc
B5: CD80_212 variant CD80 IgV-Fc (K9R, E10A, E35G, V68T, T101K) (Fc fusion)
chain: VIHVTKEVRAVATLSCGHNVSVEELAQTRIYWQKGKKMVLTMMSGDMNIWPEYKNRTIFDITNNLSITILALRPSDEGTYECVVLKYEKDAFKREHLAEVKLSVKADGSGGGGS[omitted - human IgG4 Fc with S228P (EU numbers)]
notes: also called CD80_212-Fc
B6: CD80_213 variant CD80 IgV-Fc (V11Y, V68T) (Fc fusion)
chain: VIHVTKEVKEYATLSCGHNVSVEELAQTRIYWQKEKKMVLTMMSGDMNIWPEYKNRTIFDITNNLSITILALRPSDEGTYECVVLKYEKDAFKREHLAEVTLSVKADGSGGGGS[omitted - human IgG4 Fc with S228P (EU numbers)]
notes: also called CD80_213-Fc
B7: CD80_214 variant CD80 IgV-Fc (E10G, E35G, D46E, M47V, V68M, T101K) (Fc fusion)
chain: VIHVTKEVKGVATLSCGHNVSVEELAQTRIYWQKGKKMVLTMMSGEVNIWPEYKNRTIFDITNNLSIMILALRPSDEGTYECVVLKYEKDAFKREHLAEVKLSVKADGSGGGGS[omitted - human IgG4 Fc with S228P (EU numbers)]
notes: also called CD80_214-Fc
B8: CD80_215 variant CD80 IgV-Fc (K9R, E10A, E35G, V68L, L85E) (Fc fusion)
chain: VIHVTKEVRAVATLSCGHNVSVEELAQTRIYWQKGKKMVLTMMSGDMNIWPEYKNRTIFDITNNLSILILALRPSDEGTYECVVEKYEKDAFKREHLAEVTLSVKADGSGGGGS[omitted - human IgG4 Fc with S228P (EU numbers)]
notes: also called CD80_215-Fc
B9: CD80_216 variant CD80 IgV-Fc (V11W, T28Y, D46V, R73E, F92L) (Fc fusion)
chain: VIHVTKEVKEWATLSCGHNVSVEELAQYRIYWQKEKKMVLTMMSGVMNIWPEYKNRTIFDITNNLSIVILALEPSDEGTYECVVLKYEKDALKREHLAEVTLSVKADGSGGGGS[omitted - human IgG4 Fc with S228P (EU numbers)]
notes: also called CD80_216-Fc
B10: CD80_217 variant CD80 IgV-Fc (K9N, E10G, Y87K, T101Q) (Fc fusion)
chain: VIHVTKEVNGVATLSCGHNVSVEELAQTRIYWQKEKKMVLTMMSGDMNIWPEYKNRTIFDITNNLSIVILALRPSDEGTYECVVLKKEKDAFKREHLAEVQLSVKADGSGGGGS[omitted - human IgG4 Fc with S228P (EU numbers)]
notes: also called CD80_217-Fc
B11: CD80_221 variant CD80 IgV-Fc (E10G, A26S, T28Y) (Fc fusion)
chain: VIHVTKEVKGVATLSCGHNVSVEELSQYRIYWQKEKKMVLTMMSGDMNIWPEYKNRTIFDITNNLSIVILALRPSDEGTYECVVLKYEKDAFKREHLAEVTLSVKADGSGGGGS[omitted - human IgG4 Fc with S228P (EU numbers)]
notes: also called CD80_221-Fc
B12: CD80_222 variant CD80 IgV-Fc (E35D, D46Q, L85E) (Fc fusion)
chain: VIHVTKEVKEVATLSCGHNVSVEELAQTRIYWQKDKKMVLTMMSGQMNIWPEYKNRTIFDITNNLSIVILALRPSDEGTYECVVEKYEKDAFKREHLAEVTLSVKADGSGGGGS[omitted - human IgG4 Fc with S228P (EU numbers)]
notes: also called CD80_222-Fc
B13: CD80_223 variant CD80 IgV-Fc (E10S, V68M, Y87P) (Fc fusion)
chain: VIHVTKEVKSVATLSCGHNVSVEELAQTRIYWQKEKKMVLTMMSGDMNIWPEYKNRTIFDITNNLSIMILALRPSDEGTYECVVLKPEKDAFKREHLAEVTLSVKADGSGGGGS[omitted - human IgG4 Fc with S228P (EU numbers)]
notes: also called CD80_223-Fc
B14: CD80_224 variant CD80 IgV-Fc (K9N, V11W, M47L, V68T, R73T, Y87N) (Fc fusion)
chain: VIHVTKEVNEWATLSCGHNVSVEELAQTRIYWQKEKKMVLTMMSGDLNIWPEYKNRTIFDITNNLSITILALTPSDEGTYECVVLKNEKDAFKREHLAEVTLSVKADGSGGGGS[omitted - human IgG4 Fc with S228P (EU numbers)]
notes: also called CD80_224-Fc
B15: CD80_225 variant CD80 IgV-Fc (V11Y, M47L, V68T) (Fc fusion)
chain: VIHVTKEVKEYATLSCGHNVSVEELAQTRIYWQKEKKMVLTMMSGDLNIWPEYKNRTIFDITNNLSITILALRPSDEGTYECVVLKYEKDAFKREHLAEVTLSVKADGSGGGGS[omitted - human IgG4 Fc with S228P (EU numbers)]
notes: also called CD80_225-Fc

The binders below were run against T1, human CTLA-4 (human, UniProt P16410 36-223) (assay: flow cytometry on CHO/CTLA-4 cells).
T1 construct: whole, on cells; also called CHO/CTLA-4 cells
T1 sequence (P16410 36-223): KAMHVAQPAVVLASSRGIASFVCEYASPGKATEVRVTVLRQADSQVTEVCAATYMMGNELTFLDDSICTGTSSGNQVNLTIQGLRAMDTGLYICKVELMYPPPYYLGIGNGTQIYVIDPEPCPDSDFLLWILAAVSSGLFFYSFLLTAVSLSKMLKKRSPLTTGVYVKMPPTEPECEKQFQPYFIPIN
With B1 the “MFI at 0.8 nM” value was 27500 MFI, the “MFI at 4 nM” value was 79400 MFI and the “MFI at 20 nM” value was 219000 MFI. The “MFI at 100 nM” value was 453000 MFI and the “fold change vs WT CD80 at 20 nM” value was 0.26 fold. For B2, the “MFI at 0.8 nM” value was 7990 MFI, the “MFI at 4 nM” value was 28000 MFI and the “MFI at 20 nM” value was 96300 MFI. The “MFI at 100 nM” value was 269000 MFI and the “fold change vs WT CD80 at 20 nM” value was 0.12 fold. B3 was tested, and the “MFI at 0.8 nM” value was 4680 MFI, the “MFI at 4 nM” value was 13800 MFI and the “MFI at 20 nM” value was 58400 MFI. For the same binder, the “MFI at 100 nM” value was 188000 MFI and the “fold change vs WT CD80 at 20 nM” value was 0.07 fold. B4 was tested, and the “MFI at 0.8 nM” value was 273000 MFI, the “MFI at 4 nM” value was 393000 MFI and the “MFI at 20 nM” value was 417000 MFI. For the same binder, the “MFI at 100 nM” value was 414000 MFI and the “fold change vs WT CD80 at 20 nM” value was 0.5 fold. In the case of B5, the “MFI at 0.8 nM” value is reported as 220000 MFI, the “MFI at 4 nM” value is reported as 331000 MFI and the “MFI at 20 nM” value is reported as 377000 MFI. The “MFI at 100 nM” value was 403000 MFI and the “fold change vs WT CD80 at 20 nM” value was 0.45 fold. B6 was tested, and the “MFI at 0.8 nM” value was 223000 MFI, the “MFI at 4 nM” value was 455000 MFI and the “MFI at 20 nM” value was 531000 MFI. For the same binder, the “MFI at 100 nM” value was 523000 MFI and the “fold change vs WT CD80 at 20 nM” value was 0.64 fold. In the case of B7, the “MFI at 0.8 nM” value is reported as 180000 MFI, the “MFI at 4 nM” value is reported as 400000 MFI and the “MFI at 20 nM” value is reported as 551000 MFI. The “fold change vs WT CD80 at 20 nM” value was 0.66 fold. B8 was tested, and the “MFI at 0.8 nM” value was 20900 MFI, the “MFI at 4 nM” value was 77200 MFI and the “MFI at 20 nM” value was 237000 MFI. The “MFI at 100 nM” value was 452000 MFI and the “fold change vs WT CD80 at 20 nM” value was 0.29 fold. In the case of B9, the “MFI at 0.8 nM” value is reported as 212000 MFI, the “MFI at 4 nM” value is reported as 406000 MFI and the “MFI at 20 nM” value is reported as 502000 MFI. For the same binder, the “MFI at 100 nM” value was 520000 MFI and the “fold change vs WT CD80 at 20 nM” value was 0.61 fold. With B10 the “MFI at 0.8 nM” value was 249000 MFI, the “MFI at 4 nM” value was 546000 MFI and the “MFI at 20 nM” value was 689000 MFI. For the same binder, the “MFI at 100 nM” value was 694000 MFI and the “fold change vs WT CD80 at 20 nM” value was 0.83 fold. For B11, the “MFI at 0.8 nM” value was 251000 MFI, the “MFI at 4 nM” value was 463000 MFI and the “MFI at 20 nM” value was 563000 MFI. The “MFI at 100 nM” value was 581000 MFI and the “fold change vs WT CD80 at 20 nM” value was 0.68 fold. For B12, the “MFI at 0.8 nM” value was 16800 MFI, the “MFI at 4 nM” value was 61700 MFI and the “MFI at 20 nM” value was 217000 MFI. The “MFI at 100 nM” value was 497000 MFI and the “fold change vs WT CD80 at 20 nM” value was 0.26 fold. In the case of B13, the “MFI at 0.8 nM” value is reported as 2440 MFI, the “MFI at 4 nM” value is reported as 10400 MFI and the “MFI at 20 nM” value is reported as 44500 MFI. The “MFI at 100 nM” value was 150000 MFI and the “fold change vs WT CD80 at 20 nM” value was 0.05 fold. With B14 the “MFI at 0.8 nM” value was 246000 MFI, the “MFI at 20 nM” value was 503000 MFI and the “MFI at 100 nM” value was 520000 MFI. For the same binder, the “fold change vs WT CD80 at 20 nM” value was 0.61 fold. For B15, the “MFI at 0.8 nM” value was 235000 MFI, the “MFI at 4 nM” value was 390000 MFI and the “MFI at 20 nM” value was 476000 MFI. For the same binder, the “MFI at 100 nM” value was 493000 MFI and the “fold change vs WT CD80 at 20 nM” value was 0.57 fold.
